# Assay results published in PubChem BioAssay AID1508623 (National Center for Advancing Translational Sciences (NCATS), 2021).
# In all, about 48,000 compounds went through this assay and about 450 (0.94%) were called active. Another 19% or so got no clear call; they are omitted. Calls follow the shape of the dose curve; as a rule, active = well fitted inhibition curve with a large enough effect; inconclusive = small, poorly fitted or top-dose-only effect; inactive = no such curve, though single readings can be large or run the other way. The list shows a part of the results.
# Test: Primary qHTS for Identification of Small Molecule Inhibitors of Huntingtin Promoter Activity; also: nearly all actives have a fitted effect of over 50% in size
# Details: HEK293 HTT promoter firefly luciferase reporter (activity 0% = vehicle and -100% = no light), 24 h; series mostly up to 57.5 µM; activity change, negative = inhibition: at the top concentration
# How it was run: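 Firefly luciferase signal from promoter-reporter HEK293 cells was scaled between vehicle (0%) and zero RLU (-100%). Compounds were tested at final concentrations of up to 57.5 uM over 24 h at 37 degrees C. PTC124 at 50 uM final served as control inhibitor.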
# Potency is read from the fitted curve at half-maximal effect.
SMILES,"activity change, negative = inhibition",Potency
NS(=O)(=O)c1cc2c(cc1Cl)NC(CC1CCCC1)NS2(=O)=O (centres undefined),inactive: 1.28%,–
O=C(CC1NCCNC1=O)Nc1ccc(F)c(Cl)c1 (centres undefined),inactive: 11.8%,–
CCCCOc1ccc(C(=O)Nc2sc3c(c2C(=O)OCC)CCCCC3)cc1,inactive: -5.02%,–
COc1ccc(Nc2ncc(C(=O)Nc3ccc(F)cc3F)c3ccccc23)cc1,inactive: -17.7%,–
CCOCCCn1c(SCC(=O)Nc2ccc(F)cc2)nc2c(sc3ccccc32)c1=O,inactive: -13%,–
CCC(C(=O)Nc1cc(-c2cn3cccnc3n2)ccc1C)c1ccccc1 (centres undefined),inactive: 7.86%,–
COc1ccccc1N1CCN(S(=O)(=O)c2ccc3c(c2)CCCN3C(C)=O)CC1,inactive: -27%,–
CC(C)(C)NCC(O)c1cc(O)cc(O)c1 (centres undefined),inactive: -0.878%,–
O=C(c1ccc2c(c1)N(Cc1ccccc1Cl)C(=O)c1ccccc1S2)N1CCCC1,inactive: -17.3%,–
Cc1ccccc1CNC(=O)CN1CCSc2ccccc21,inactive: 3.56%,–
Nc1nc2nc(-c3ccccc3)cc(=O)n2[nH]1,inactive: -2.37%,–
COc1ccc(NC(=O)CN2CCCN(Cc3ccccc3)S2(=O)=O)cc1,inactive: 2.46%,–
Cc1ccc(NC(=O)C2CCN(S(=O)(=O)c3ccc4c(c3)CCCC(=O)N4)CC2)c(Br)c1,inactive: -28.1%,–
Fc1ccc(CNc2nc(-c3ccc(Cl)cc3)cc(C(F)(F)F)n2)cc1,inactive: -28.9%,–
Cc1cccc(NS(=O)(=O)c2ccc3c(c2)n(C)c(=O)n3C)c1C,inactive: -23.5%,–
CC[N+](CC)(CC)CCOc1cccc(OCC[N+](CC)(CC)CC)c1OCC[N+](CC)(CC)CC,inactive,–
O=c1oc2ccccc2cc1-c1nc(-c2cccc(Cl)c2)cs1,inactive: -17.4%,–
CCN(CC)C(=O)Cn1cc(SCC(=O)Nc2cc(OC)ccc2OC)c2ccccc21,inactive: -26.8%,–
Cc1ccc(Cl)cc1N1CCN(C(=O)c2sc3nc4n(c(=O)c3c2C)CCC4)CC1,inactive: -0.347%,–
CN(C)CCNC(=O)c1ccc2nc(Cc3ccccc3)oc2c1,inactive: -3%,–
COc1ccc(Cl)cc1NC(=O)CSc1cc(C)[nH]c(=O)n1,inactive: -13.8%,–
Cc1cccn2c(=O)cc(CSc3nnc(NC(=O)C(C)C)s3)nc12,inactive: -7.78%,–
CCC(CC)C(=O)Nc1ccc2nc(SCC(=O)N3CCOCC3)sc2c1,inactive: -19.5%,–
Cc1ccc(CSc2nc3ccc(NC(=O)CC(C)C)cc3s2)cc1,inactive: -11%,–
CCOC(=O)c1noc2ncn(Cc3ccc([N+](=O)[O-])cc3)c(=O)c12,inactive: 5.75%,–

SMILES,"activity change, negative = inhibition",Potency
COc1ccc(C(=O)NCC(c2ccc(N(C)C)cc2)N2CCOCC2)cc1 (centres undefined),inactive: -10.7%,–
COc1ccc(NC(=O)CSC2=Nc3ccccc3C3=NC(CCC(=O)NC4CCCCC4)C(=O)N23)cc1Cl (centres undefined),inactive: -9.26%,–
COc1ccc(-c2noc(-c3nnn(-c4ccc(C)cc4C)c3C)n2)cc1,inactive: 12%,–
COc1ccc(S(=O)(=O)c2cn(C)c3cc(N4CCCCCC4)c(F)cc3c2=O)cc1,inactive: -2.04%,–
Cc1ccc(-n2nc(CO)c(C(=O)NCc3cccnc3)n2)cc1C,inactive: -16.9%,–
O=C(Nc1cc(F)ccc1F)C1CCN(C(=O)c2cnn(-c3ccccc3)c2-n2cccc2)CC1,inactive: -27.8%,–
Cc1ccc(NC(=O)CSc2nncn2C)c(C)c1,inactive: 11.2%,–
COc1ccc(Cl)c2sc(NC(=O)c3ccc(S(=O)(=O)N4CCCC4)cc3)nc12,inactive: 3.83%,–
COc1ccccc1NC(=O)CSCc1cc(=O)c2cccc(Cl)c2[nH]1,inactive: -16.2%,–
COc1ccc(OC)c(C2CC(=O)Nc3c2c(=O)n(C)c2ncnn32)c1 (centres undefined),inactive: -1.77%,–
NCc1ccc(S(N)(=O)=O)cc1,inactive: -4.47%,–
CCc1ccc2occ(CC(=O)Nc3c(C(=O)c4ccccc4)oc4ccccc34)c2c1,inactive: -11.4%,–
CCN1C(=O)c2ccccc2Sc2ccc(NC(=O)Nc3cc(C)cc(C)c3)cc21,–,active: 20 µM
Cc1ccc(CNC(=O)c2cc3sc(Cl)cc3n2C)cc1,inactive: -29.7%,–
Cc1ccc2nc(-c3ccc(Cl)c(NC(=O)COc4ccc([N+](=O)[O-])cc4)c3)oc2c1,inactive: -0.834%,–
O=C(Cn1c(=O)n(-c2ccccc2)c(=O)c2c3c(sc21)CCC3)c1ccc(Br)cc1,inactive: -8.73%,–
CC(C)CCNC(=O)CCCn1c(=O)c2cccn2c2ccccc21,inactive: 7.31%,–
COc1cccc(NC(=O)c2cnc(SCC(=O)N3CCCc4ccccc43)n(C)c2=O)c1,inactive: -20.3%,–
CCN(C(=O)c1cc2c(=O)oc3ccccc3c2s1)c1ccccc1F,inactive: -4.06%,–
Cc1noc(-c2ccc(-c3noc(-c4ccc(Cl)cc4)n3)cc2)n1,inactive: 3.65%,–
Cc1ccc(C)c(CN2CCCN(Cc3ccccc3C)S2(=O)=O)c1,inactive: -5.06%,–
Cc1cc(C)cc(NC(=O)CN2C(=O)c3ccccc3Sc3ccc(C(=O)N4CCCC4)cc32)c1,inactive: -27.2%,–
O=C(CN1C(=O)CCc2cc(Br)ccc21)Nc1ccc(OC(F)(F)F)cc1,inactive: -17.6%,–
CCOC(=O)c1ccc(Nc2c(-c3ccc(N(C)C)cc3)nc3nc[nH]n23)cc1,inactive: -3.28%,–
COc1cccc(CNC(=O)c2nn(C)c3c2CSc2ccccc2-3)c1,inactive: -15%,–

SMILES,"activity change, negative = inhibition",Potency
COc1ccc(NC(=O)c2cnc3cc(C)ccn3c2=O)c(OC)c1,inactive: -6.09%,–
COc1ccc(Cn2c(=O)n(-c3ccc(C)cc3)c(=O)c3c2c2cc(C)ccc2n3C)cc1,inactive: -3.41%,–
COc1ccc(C)cc1NC(=O)Cn1nc(N2CCN(c3ccccc3OC)CC2)ccc1=O,inactive: -24.4%,–
COc1ccccc1Cc1nc2ccccc2nc1SCC(=O)NCc1ccc(C)cc1,inactive: -5.85%,–
Cc1noc(C)c1S(=O)(=O)N(CC(=O)NCc1ccccc1)c1ccc(C(C)C)cc1,inactive: -20.2%,–
O=C(COCc1cc(-c2ccco2)on1)Nc1cc(Cl)ccc1O,inactive: -26.2%,–
COc1ccc(-c2nc(SCC(=O)NC3CCCC3)c(-c3ccc(F)cc3)[nH]2)cc1OC,inactive: -12.7%,–
O=C(Nc1ccc2oc(-c3cccnc3)nc2c1)c1ccccc1F,inactive: -26.8% [at 11.5 µM],–
CC(=C(CCOC(=O)C(C)C)SSC(CCOC(=O)C(C)C)=C(C)N(C=O)Cc1cnc(C)nc1N)N(C=O)Cc1cnc(C)nc1N,inactive: 7.89%,–
COCCNC(=O)CCn1nc(-c2ccc(Cl)cc2)c2ccccc2c1=O,inactive: -17.1% [at 11.5 µM],–
COc1ccc(CC(=O)N2CCc3c([nH]c4ccccc34)C2c2ccc(SC)cc2)cc1 (centres undefined),inactive: -25.4%,–
CC1CCN(C(c2ccc(F)cc2)c2sc3nc(-c4ccco4)nn3c2O)CC1 (centres undefined),inactive: 0%,–
COc1ccc(C(=O)N2CCN(C(=O)COc3ccccc3)CC2)cc1OC,inactive: -4.46%,–
O=C(c1ccc2c(c1)N(Cc1ccccc1)C(=O)c1ccccc1S2(=O)=O)N1CCOCC1,inactive: -6.14%,–
COc1ccc(NC(=O)C(NC(=O)/C=C\c2ccc3c(c2)OCO3)c2ccc(C)cc2)cc1 (centres undefined),inactive: -23.2%,–
CC/C(=C(\c1ccccc1)c1ccc(OCCN(C)C)cc1)c1ccccc1,inactive: -16.4%,–
COc1ccc(-c2nc3n(n2)C(c2ccc(O)cc2)C(C(=O)Nc2cccnc2)=C(C)N3)cc1OC (centres undefined),inactive: -11%,–
O=C(Nc1cccc(Br)c1)c1cc(S(=O)(=O)N2CCCCC2)c[nH]1,inactive: -23%,–
Cc1cc(S(=O)(=O)Nc2cc3c(cc2N2CCOCC2)n(C)c(=O)c(=O)n3C)ccc1F,inactive: -7.72%,–
CCOc1ccc(CCNC(=O)NCc2noc3ccc(C)cc23)cc1,inactive: -17.6%,–
CCOCCc1nn2c(=O)cc(COC(=O)c3ccc(NC(=O)c4cccs4)cc3)nc2s1,inactive: -4.98%,–
CCCNC(=O)c1ccc(Cn2c(SCC(=O)NC(C)C)nc3ccccc3c2=O)cc1,inactive: -1.55%,–
COc1ccccc1CNc1nccn(-c2ccc(F)cc2)c1=O,inactive: 3.26%,–
CCCn1c2ccccc2c2cnn(CC(=O)NCC3CCN(Cc4ccccc4C)CC3)c(=O)c21,inactive: -12.5%,–
COC(=O)CN1C(=O)C(O)(c2c(C)[nH]c3ccccc23)c2ccccc21 (centres undefined),inactive: -13.5%,–

SMILES,"activity change, negative = inhibition",Potency
COc1ccc(C(=O)Nc2nc(-c3ccc(Br)cc3)ns2)cc1,inactive: -18.8%,–
Cc1csc2nc(COc3ccc(NC(=O)c4ccccc4F)cc3)cc(=O)n12,inactive: 0.12%,–
Cc1nn(Cc2ccccc2Cl)c(C)c1CN(C)CC(O)COc1ccc(Cl)cc1 (centres undefined),inactive: -17.6%,–
COc1ccc(NC(=O)Cn2c(=O)c3cccn3c3ccccc32)cc1,inactive: -6.56%,–
COc1ccc(S(=O)(=O)NCCc2sc(-c3cccnc3)nc2C)cc1,inactive: -8.38%,–
O=C(NC1CC(=O)N(c2ccc(F)cc2)C1)c1ccc(S(=O)(=O)N2CCOCC2)cc1 (centres undefined),inactive: -1.82%,–
Cc1ccc(C(=O)c2oc3ccccc3c2NC(=O)c2cc(-c3ccccc3)on2)cc1,inactive: 6.99%,–
Cc1ccc(-n2ncc3c(Nc4ccc5c(c4)OCCO5)ncnc32)cc1Cl,inactive: -5.9%,–
CCOCCCN1C(=O)CN(C2CCCCCC2)C(=O)C1c1ccc(OCC)c(OC)c1 (centres undefined),inactive: 18.8%,–
CCSc1nc(-c2ccccc2)nc2c1Cc1c(CO)cnc(C)c1O2,inactive: -14.3%,–
CCOC(=O)c1[nH]c(C)c(CCC(=O)N2CCN(c3ccc(OC)cc3)CC2)c1C,inactive: -14.3%,–
O=C(O)CCC(=O)N1CCc2cc(S(=O)(=O)NCc3ccc(F)cc3)ccc21,inactive: -20%,–
COc1ccc(NC(=O)c2cccc3c(=O)c4c([nH]c23)CCCC4)cc1,inactive: -16.4%,–
Cc1ccc(C(C)C)c(OCC(=O)Nc2ccc3c(c2)nc(CCNC(=O)c2ccco2)n3C)c1,inactive: -9.91%,–
O=C(COc1ccccc1F)Nc1nnc(SCc2cc(=O)n3ccccc3n2)s1,inactive: -2.82%,–
CCOC(=O)c1cc2c(=O)n3ccccc3nc2n(CC2CCCO2)c1=NC(=O)c1cccc(C)c1 (centres undefined),inactive: -29.8%,–
Cc1ccccc1Cn1nnc2sc3c(c2c1=O)CCCC3,inactive: -7.67%,–
CCOC(=O)c1c(NC(=O)Nc2ccc(F)cc2)sc(C(=O)N(C)C)c1C,inactive: -19.3%,–
COc1ccc(CCNC(=O)c2ccc3c(c2)N(Cc2ccccc2Cl)C(=O)c2ccccc2S3)cc1OC,inactive: -19.5%,–
Cn1cc(CCCC(=O)NCc2cccc(Br)c2)c2ccccc21,inactive: -3.89%,–
CCc1nc2ccc(C(=O)NCc3ccccc3C)cc2nc1CC,inactive: -4.2%,–
COc1ccc(-n2cc(-c3ccccc3)c3c(N4CCCC(C)C4)ncnc32)cc1 (centres undefined),inactive: -12.9%,–
CN=C(N)NC(=O)Nc1c(C)cccc1C,inactive: 5.35%,–
O=c1c(NCc2cccs2)nccn1-c1ccccc1,inactive: 21.9%,–
